Test results: the supplement of paper PMC8728848
The list shows a part of the results.

What was measured:
Experiment in all cases: glycan array binding signal (z-score within array); higher = stronger binding
Settings in all cases: glycan notation: IUPAC condensed, linker removed
[1] = target: Neu5Ac(a2-3)Gal6S(b1-4)[Fuc(a1-3)]GlcNAc
Procedure, shortened: (§1)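 The Consortium for Functional Glycomics database supplied 3228 glycan arrays, of which those lacking an available protein sequence were dropped. The binding signal, a within-array Z-score, was averaged across arrays of the same protein sequence and across linkers. Negative scores can be read as non-binding.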

Neu5Ac(a2-3)GalNAc = target: Neu5Ac(a2-3)GalNAc
Procedure, shortened: as §1

[2] = target: Neu5Ac(a2-3)GalNAc(b1-4)GlcNAc
Procedure, shortened: as §1

[3] = target: Neu5Ac(a2-3)[GalNAc(b1-4)]Gal(b1-4)Glc
Procedure, shortened: as §1

[4] = target: Neu5Ac(a2-3)[GalNAc(b1-4)]Gal(b1-4)GlcNAc
Procedure, shortened: as §1

[5] = target: Neu5Ac(a2-3)[Neu5Ac(a2-6)]GalNAc
Procedure, shortened: as §1

Neu5Ac(a2-6)Gal = target: Neu5Ac(a2-6)Gal
Procedure, shortened: as §1

Neu5Ac(a2-6)Gal(b1-4)Glc = target: Neu5Ac(a2-6)Gal(b1-4)Glc
Procedure, shortened: as §1

[6] = target: Neu5Ac(a2-6)Gal(b1-4)GlcNAc
Procedure, shortened: as §1

[7] = target: Neu5Ac(a2-6)Gal(b1-4)GlcNAc(b1-2)Man(a1-3)[Gal(b1-4)GlcNAc(b1-2)Man(a1-6)]Man(b1-4)GlcNAc(b1-4)GlcNAc
Procedure, shortened: as §1

[8] = target: Neu5Ac(a2-6)Gal(b1-4)GlcNAc(b1-2)Man(a1-3)[GlcNAc(b1-2)Man(a1-6)]Man(b1-4)GlcNAc(b1-4)GlcNAc
Procedure, shortened: as §1

[9] = target: Neu5Ac(a2-6)Gal(b1-4)GlcNAc(b1-2)Man(a1-3)[GlcNAc(b1-2)Man(b1-4)GlcNAc(b1-2)Man(a1-6)]Man(b1-4)GlcNAc(b1-4)GlcNAc
Procedure, shortened: as §1

[10] = target: Neu5Ac(a2-6)Gal(b1-4)GlcNAc(b1-2)Man(a1-3)[Neu5Ac(a2-6)Gal(b1-4)GlcNAc(b1-2)Man(a1-6)]Man(b1-4)GlcNAc(b1-4)GlcNAc
Procedure, shortened: as §1

[11] = target: Neu5Ac(a2-6)Gal(b1-4)GlcNAc(b1-2)Man(a1-6)[Gal(b1-4)GlcNAc(b1-2)Man(a1-3)]Man(b1-4)GlcNAc(b1-4)GlcNAc
Procedure, shortened: as §1

[12] = target: Neu5Ac(a2-6)Gal(b1-4)GlcNAc(b1-2)Man(a1-6)[GlcNAc(b1-2)Man(a1-3)]Man(b1-4)GlcNAc(b1-4)GlcNAc
Procedure, shortened: as §1

[13] = target: Neu5Ac(a2-6)Gal(b1-4)GlcNAc(b1-3)Gal(b1-4)GlcNAc
Procedure, shortened: as §1

[14] = target: Neu5Ac(a2-6)Gal(b1-4)GlcNAc(b1-3)Gal(b1-4)[Fuc(a1-3)]GlcNAc(b1-3)Gal(b1-4)[Fuc(a1-3)]GlcNAc
Procedure, shortened: as §1

[15] = target: Neu5Ac(a2-6)Gal(b1-4)GlcNAc6S
Procedure, shortened: as §1

Neu5Ac(a2-6)GalNAc = target: Neu5Ac(a2-6)GalNAc
Procedure, shortened: as §1

[16] = target: Neu5Ac(a2-6)GalNAc(b1-4)GlcNAc
Procedure, shortened: as §1

Neu5Ac(a2-8)Neu5Ac = target: Neu5Ac(a2-8)Neu5Ac
Procedure, shortened: as §1

[17] = target: Neu5Ac(a2-8)Neu5Ac(a2-3)Gal(b1-4)Glc
Procedure, shortened: as §1

[18] = target: Neu5Ac(a2-8)Neu5Ac(a2-3)[GalNAc(b1-4)]Gal(b1-4)Glc
Procedure, shortened: as §1

[19] = target: Neu5Ac(a2-8)Neu5Ac(a2-8)Neu5Ac
Procedure, shortened: as §1

[20] = target: Neu5Ac(a2-8)Neu5Ac(a2-8)Neu5Ac(a2-3)Gal(b1-4)Glc
Procedure, shortened: as §1

[21] = target: Neu5Ac(a2-8)Neu5Ac(a2-8)Neu5Ac(a2-3)[GalNAc(b1-4)]Gal(b1-4)Glc
Procedure, shortened: as §1

[22] = target: Neu5Ac(a2-8)Neu5Ac(a2-8)Neu5Ac(a2-8)Neu5Ac(a2-3)[GalNAc(b1-4)]Gal(b1-4)Glc
Procedure, shortened: as §1

[23] = target: Neu5Ac(b2-6)Gal(b1-4)GlcNAc
Procedure, shortened: as §1

Neu5Ac(b2-6)GalNAc = target: Neu5Ac(b2-6)GalNAc
Procedure, shortened: as §1

[24] = target: Neu5Ac9Ac(a2-6)Gal(b1-4)GlcNAc
Procedure, shortened: as §1

[25] = target: Neu5Gc(a2-3)Gal(b1-3)GlcNAc
Procedure, shortened: as §1

[26] = target: Neu5Gc(a2-3)Gal(b1-3)[Fuc(a1-4)]GlcNAc
Procedure, shortened: as §1

Neu5Gc(a2-3)Gal(b1-4)Glc = target: Neu5Gc(a2-3)Gal(b1-4)Glc
Procedure, shortened: as §1

[27] = target: Neu5Gc(a2-3)Gal(b1-4)GlcNAc
Procedure, shortened: as §1

[28] = target: Neu5Gc(a2-3)Gal(b1-4)[Fuc(a1-3)]GlcNAc
Procedure, shortened: as §1

[29] = target: Neu5Gc(a2-6)Gal(b1-4)GlcNAc
Procedure, shortened: as §1

Neu5Gc(a2-6)GalNAc = target: Neu5Gc(a2-6)GalNAc
Procedure, shortened: as §1

[30] = target: Neu5Gc(b2-6)Gal(b1-4)GlcNAc
Procedure, shortened: as §1

B1: Angptl4 (Homo sapiens), Q9BY76 (protein)
chain: MSGAPTAGAALMLCAATAVLLSAQGGPVQSKSPRFASWDEMNVLAHGLLQLGQGLREHAERTRSQLSALERRLSACGSACQGTEGSTDLPLAPESRVDPEVLHSLQTQLKAQNSRIQQLFHKVAQQQRHLEKQHLRIQHLQSQFGLLDHKHLDHEVAKPARRKRLPEMAQPVDPAHNVSRLHRLPRDCQELFQVGERQSGLFEIQPQGSPPFLVNCKMTSDGGWTVIQRRHDGSVDFNRPWEAYKAGFGDPHGEFWLGLEKVHSITGDRNSRLAVQLRDWDGNAELLQFSVHLGGEDTAYSLQLTAPVAGQLGATTVPPSGLSVPFSTWDQDHDLRRDKNCAKSLSGGWWFGTCSHSNLNGQYFRSIPQQRQKLKKGIFWKTWRGRYYPLQATTMLIQPMAAEAAS
glycan array binding signal (z-score) [1]: -0.53 | glycan array binding signal (z-score) (Neu5Ac(a2-3)GalNAc): -0.954 | glycan array binding signal (z-score) [2]: -0.502 | glycan array binding signal (z-score) [3]: 0.404 | glycan array binding signal (z-score) [4]: -0.209 | glycan array binding signal (z-score) [5]: -1.74 | glycan array binding signal (z-score) (Neu5Ac(a2-6)Gal): -0.048 | glycan array binding signal (z-score) (Neu5Ac(a2-6)Gal(b1-4)Glc): -0.017 | glycan array binding signal (z-score) [6]: -0.303 | glycan array binding signal (z-score) [7]: -0.209 | glycan array binding signal (z-score) [8]: -1.2 | glycan array binding signal (z-score) [9]: -0.039 | glycan array binding signal (z-score) [10]: -0.39 | glycan array binding signal (z-score) [11]: 4.1 | glycan array binding signal (z-score) [12]: -0.229 | glycan array binding signal (z-score) [13]: 0.126 | glycan array binding signal (z-score) [14]: 0.162 | glycan array binding signal (z-score) [15]: -0.37 | glycan array binding signal (z-score) (Neu5Ac(a2-6)GalNAc): -0.481 | glycan array binding signal (z-score) [16]: -0.571 | glycan array binding signal (z-score) (Neu5Ac(a2-8)Neu5Ac): -0.276 | glycan array binding signal (z-score) [17]: -0.52 | glycan array binding signal (z-score) [18]: -0.089 | glycan array binding signal (z-score) [19]: -0.016 | glycan array binding signal (z-score) [20]: -0.308 | glycan array binding signal (z-score) [21]: -0.283 | glycan array binding signal (z-score) [22]: -0.488 | glycan array binding signal (z-score) [23]: -0.639 | glycan array binding signal (z-score) (Neu5Ac(b2-6)GalNAc): -0.549 | glycan array binding signal (z-score) [24]: 0.033 | glycan array binding signal (z-score) [25]: 0.002 | glycan array binding signal (z-score) [26]: -0.279 | glycan array binding signal (z-score) (Neu5Gc(a2-3)Gal(b1-4)Glc): 0.478 | glycan array binding signal (z-score) [27]: -0.227 | glycan array binding signal (z-score) [28]: -0.161 | glycan array binding signal (z-score) [29]: -0.162 | glycan array binding signal (z-score) (Neu5Gc(a2-6)GalNAc): -0.426 | glycan array binding signal (z-score) [30]: 0.207
